Results taken from PMC12386666.
These are yes or no findings as the source states them, for the method shown. In cells and extracts the contact can be indirect. Some binding calls cover weakened binding; strength is not graded here. Tags and fused reporters may be left off the sequences shown.

Protein sequences, listed by entry. Tags and fused reporters are not part of them. Residues count along the entry.
UniProt Q9BXM7, residues 78-581: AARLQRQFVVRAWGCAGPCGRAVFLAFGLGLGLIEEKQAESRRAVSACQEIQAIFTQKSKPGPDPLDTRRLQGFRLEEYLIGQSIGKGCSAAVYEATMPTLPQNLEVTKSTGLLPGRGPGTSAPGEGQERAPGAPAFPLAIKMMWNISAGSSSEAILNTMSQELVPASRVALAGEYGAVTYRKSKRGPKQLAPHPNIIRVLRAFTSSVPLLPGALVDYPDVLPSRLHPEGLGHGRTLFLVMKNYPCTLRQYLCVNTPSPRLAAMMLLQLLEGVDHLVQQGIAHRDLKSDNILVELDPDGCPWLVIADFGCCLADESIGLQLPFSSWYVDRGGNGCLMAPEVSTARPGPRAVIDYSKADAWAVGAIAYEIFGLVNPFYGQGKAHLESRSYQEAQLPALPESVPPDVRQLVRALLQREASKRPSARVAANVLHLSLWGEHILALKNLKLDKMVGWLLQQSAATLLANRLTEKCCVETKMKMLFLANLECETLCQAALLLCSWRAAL

Columns and labels:
[1] = molecular target: T1, HA-synphilin-1 (wild-type) (UniProt Q9Y6H5); experiment: co-IP; transfected HEK293 cells lysed; synphilin-1 immunoprecipitated with anti-HA, co-precipitated proteins detected with anti-myc; lysis buffer 50 mM Tris-HCl pH 7.4, 140 mM NaCl, 1% Triton X-100, 0.1% SDS; washes with 500 mM NaCl
T1 sequence: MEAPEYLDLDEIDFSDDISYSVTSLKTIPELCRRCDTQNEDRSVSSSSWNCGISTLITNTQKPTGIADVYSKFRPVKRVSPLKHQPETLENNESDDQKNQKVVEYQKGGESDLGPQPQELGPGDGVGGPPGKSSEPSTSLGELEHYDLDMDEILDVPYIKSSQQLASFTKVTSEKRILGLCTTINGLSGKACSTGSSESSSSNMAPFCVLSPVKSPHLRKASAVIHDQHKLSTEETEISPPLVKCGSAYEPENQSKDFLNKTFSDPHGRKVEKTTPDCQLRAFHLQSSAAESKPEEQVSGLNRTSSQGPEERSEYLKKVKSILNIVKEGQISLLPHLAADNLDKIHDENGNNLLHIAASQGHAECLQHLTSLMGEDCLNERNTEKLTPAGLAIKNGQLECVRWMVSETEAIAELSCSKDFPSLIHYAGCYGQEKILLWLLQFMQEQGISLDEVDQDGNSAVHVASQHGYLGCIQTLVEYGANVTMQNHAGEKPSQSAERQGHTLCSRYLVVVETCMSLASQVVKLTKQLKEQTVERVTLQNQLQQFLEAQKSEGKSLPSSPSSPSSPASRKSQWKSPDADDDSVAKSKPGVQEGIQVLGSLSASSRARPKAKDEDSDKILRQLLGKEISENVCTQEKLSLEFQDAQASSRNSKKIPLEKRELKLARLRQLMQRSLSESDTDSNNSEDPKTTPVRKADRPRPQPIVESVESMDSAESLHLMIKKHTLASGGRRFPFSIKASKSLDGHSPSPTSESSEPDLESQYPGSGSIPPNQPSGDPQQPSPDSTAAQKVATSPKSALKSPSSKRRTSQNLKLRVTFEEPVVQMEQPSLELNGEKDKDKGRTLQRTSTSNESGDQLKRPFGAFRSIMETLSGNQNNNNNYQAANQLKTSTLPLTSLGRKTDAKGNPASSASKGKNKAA

HA-SIAH1 = molecular target: T2, HA-SIAH1 (UniProt Q8IUQ4); experiment: co-IP; HEK293 cells transfected with myc-synphilin-1 and HA-SIAH1, without or with His-CDK5, His-p25 or His-CDK5 dominant negative; SIAH1 immunoprecipitated with anti-HA, synphilin-1 detected with anti-myc
T2 sequence: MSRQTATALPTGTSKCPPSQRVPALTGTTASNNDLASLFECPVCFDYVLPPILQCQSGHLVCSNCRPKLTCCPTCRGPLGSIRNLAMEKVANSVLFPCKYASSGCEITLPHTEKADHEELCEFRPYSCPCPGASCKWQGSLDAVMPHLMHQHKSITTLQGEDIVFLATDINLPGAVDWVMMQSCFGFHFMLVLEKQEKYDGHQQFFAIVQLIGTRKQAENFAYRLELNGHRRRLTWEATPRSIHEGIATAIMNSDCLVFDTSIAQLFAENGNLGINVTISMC

myc-SIAH1 = molecular target: T3, myc-SIAH1 (UniProt Q8IUQ4); experiment: co-IP; HEK293 cells transfected with HA-synphilin-1 (wild-type or S566A) and myc-SIAH1; SIAH1 immunoprecipitated with anti-myc, synphilin-1 detected with anti-HA
T3 sequence: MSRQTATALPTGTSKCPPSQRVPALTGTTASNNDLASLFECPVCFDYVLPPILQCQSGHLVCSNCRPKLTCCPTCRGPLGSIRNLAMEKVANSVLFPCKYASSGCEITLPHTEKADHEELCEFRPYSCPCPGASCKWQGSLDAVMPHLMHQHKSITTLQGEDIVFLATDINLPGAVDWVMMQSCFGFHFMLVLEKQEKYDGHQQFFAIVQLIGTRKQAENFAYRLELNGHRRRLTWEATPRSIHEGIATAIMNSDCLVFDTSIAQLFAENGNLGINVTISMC

myc-PINK1 = myc-PINK1 (UniProt Q9BXM7); experiment: co-IP; HEK293 cells transfected with myc-PINK1 and HA-synphilin-1 (wild-type, S566E or S566A), without or with His-CDK5 and His-p25; PINK1 immunoprecipitated with anti-myc, synphilin-1 detected with anti-HA

In the case of myc-FKBP12 (from UniProt P62942 1-108), the binding [1] is reported as “no binding”.

“myc-CDK5 (from UniProt Q00535 1-292) (enzyme)” was tested, and the binding [1] was “binds”.

B1: myc-synphilin-1 (protein, UniProt Q9Y6H5 1-919)
chain: MEAPEYLDLDEIDFSDDISYSVTSLKTIPELCRRCDTQNEDRSVSSSSWNCGISTLITNTQKPTGIADVYSKFRPVKRVSPLKHQPETLENNESDDQKNQKVVEYQKGGESDLGPQPQELGPGDGVGGPPGKSSEPSTSLGELEHYDLDMDEILDVPYIKSSQQLASFTKVTSEKRILGLCTTINGLSGKACSTGSSESSSSNMAPFCVLSPVKSPHLRKASAVIHDQHKLSTEETEISPPLVKCGSAYEPENQSKDFLNKTFSDPHGRKVEKTTPDCQLRAFHLQSSAAESKPEEQVSGLNRTSSQGPEERSEYLKKVKSILNIVKEGQISLLPHLAADNLDKIHDENGNNLLHIAASQGHAECLQHLTSLMGEDCLNERNTEKLTPAGLAIKNGQLECVRWMVSETEAIAELSCSKDFPSLIHYAGCYGQEKILLWLLQFMQEQGISLDEVDQDGNSAVHVASQHGYLGCIQTLVEYGANVTMQNHAGEKPSQSAERQGHTLCSRYLVVVETCMSLASQVVKLTKQLKEQTVERVTLQNQLQQFLEAQKSEGKSLPSSPSSPSSPASRKSQWKSPDADDDSVAKSKPGVQEGIQVLGSLSASSRARPKAKDEDSDKILRQLLGKEISENVCTQEKLSLEFQDAQASSRNSKKIPLEKRELKLARLRQLMQRSLSESDTDSNNSEDPKTTPVRKADRPRPQPIVESVESMDSAESLHLMIKKHTLASGGRRFPFSIKASKSLDGHSPSPTSESSEPDLESQYPGSGSIPPNQPSGDPQQPSPDSTAAQKVATSPKSALKSPSSKRRTSQNLKLRVTFEEPVVQMEQPSLELNGEKDKDKGRTLQRTSTSNESGDQLKRPFGAFRSIMETLSGNQNNNNNYQAANQLKTSTLPLTSLGRKTDAKGNPASSASKGKNKAA
B1 was tested, and the binding (HA-SIAH1) was “binds”.

B2: HA-synphilin-1 S566A (protein, UniProt Q9Y6H5 1-919)
chain: MEAPEYLDLDEIDFSDDISYSVTSLKTIPELCRRCDTQNEDRSVSSSSWNCGISTLITNTQKPTGIADVYSKFRPVKRVSPLKHQPETLENNESDDQKNQKVVEYQKGGESDLGPQPQELGPGDGVGGPPGKSSEPSTSLGELEHYDLDMDEILDVPYIKSSQQLASFTKVTSEKRILGLCTTINGLSGKACSTGSSESSSSNMAPFCVLSPVKSPHLRKASAVIHDQHKLSTEETEISPPLVKCGSAYEPENQSKDFLNKTFSDPHGRKVEKTTPDCQLRAFHLQSSAAESKPEEQVSGLNRTSSQGPEERSEYLKKVKSILNIVKEGQISLLPHLAADNLDKIHDENGNNLLHIAASQGHAECLQHLTSLMGEDCLNERNTEKLTPAGLAIKNGQLECVRWMVSETEAIAELSCSKDFPSLIHYAGCYGQEKILLWLLQFMQEQGISLDEVDQDGNSAVHVASQHGYLGCIQTLVEYGANVTMQNHAGEKPSQSAERQGHTLCSRYLVVVETCMSLASQVVKLTKQLKEQTVERVTLQNQLQQFLEAQKSEGKSLPSSPSSPSAPASRKSQWKSPDADDDSVAKSKPGVQEGIQVLGSLSASSRARPKAKDEDSDKILRQLLGKEISENVCTQEKLSLEFQDAQASSRNSKKIPLEKRELKLARLRQLMQRSLSESDTDSNNSEDPKTTPVRKADRPRPQPIVESVESMDSAESLHLMIKKHTLASGGRRFPFSIKASKSLDGHSPSPTSESSEPDLESQYPGSGSIPPNQPSGDPQQPSPDSTAAQKVATSPKSALKSPSSKRRTSQNLKLRVTFEEPVVQMEQPSLELNGEKDKDKGRTLQRTSTSNESGDQLKRPFGAFRSIMETLSGNQNNNNNYQAANQLKTSTLPLTSLGRKTDAKGNPASSASKGKNKAA
B2 was tested, and the binding (myc-SIAH1) was “binds” and the binding (myc-PINK1) was “binds”.

B3: HA-synphilin-1 (wild-type) (protein, UniProt Q9Y6H5 1-919)
chain: MEAPEYLDLDEIDFSDDISYSVTSLKTIPELCRRCDTQNEDRSVSSSSWNCGISTLITNTQKPTGIADVYSKFRPVKRVSPLKHQPETLENNESDDQKNQKVVEYQKGGESDLGPQPQELGPGDGVGGPPGKSSEPSTSLGELEHYDLDMDEILDVPYIKSSQQLASFTKVTSEKRILGLCTTINGLSGKACSTGSSESSSSNMAPFCVLSPVKSPHLRKASAVIHDQHKLSTEETEISPPLVKCGSAYEPENQSKDFLNKTFSDPHGRKVEKTTPDCQLRAFHLQSSAAESKPEEQVSGLNRTSSQGPEERSEYLKKVKSILNIVKEGQISLLPHLAADNLDKIHDENGNNLLHIAASQGHAECLQHLTSLMGEDCLNERNTEKLTPAGLAIKNGQLECVRWMVSETEAIAELSCSKDFPSLIHYAGCYGQEKILLWLLQFMQEQGISLDEVDQDGNSAVHVASQHGYLGCIQTLVEYGANVTMQNHAGEKPSQSAERQGHTLCSRYLVVVETCMSLASQVVKLTKQLKEQTVERVTLQNQLQQFLEAQKSEGKSLPSSPSSPSSPASRKSQWKSPDADDDSVAKSKPGVQEGIQVLGSLSASSRARPKAKDEDSDKILRQLLGKEISENVCTQEKLSLEFQDAQASSRNSKKIPLEKRELKLARLRQLMQRSLSESDTDSNNSEDPKTTPVRKADRPRPQPIVESVESMDSAESLHLMIKKHTLASGGRRFPFSIKASKSLDGHSPSPTSESSEPDLESQYPGSGSIPPNQPSGDPQQPSPDSTAAQKVATSPKSALKSPSSKRRTSQNLKLRVTFEEPVVQMEQPSLELNGEKDKDKGRTLQRTSTSNESGDQLKRPFGAFRSIMETLSGNQNNNNNYQAANQLKTSTLPLTSLGRKTDAKGNPASSASKGKNKAA
For B3, the binding (myc-SIAH1) was “binds” and the binding (myc-PINK1) was “binds”.

B4: HA-synphilin-1 S566E (protein, UniProt Q9Y6H5 1-919)
chain: MEAPEYLDLDEIDFSDDISYSVTSLKTIPELCRRCDTQNEDRSVSSSSWNCGISTLITNTQKPTGIADVYSKFRPVKRVSPLKHQPETLENNESDDQKNQKVVEYQKGGESDLGPQPQELGPGDGVGGPPGKSSEPSTSLGELEHYDLDMDEILDVPYIKSSQQLASFTKVTSEKRILGLCTTINGLSGKACSTGSSESSSSNMAPFCVLSPVKSPHLRKASAVIHDQHKLSTEETEISPPLVKCGSAYEPENQSKDFLNKTFSDPHGRKVEKTTPDCQLRAFHLQSSAAESKPEEQVSGLNRTSSQGPEERSEYLKKVKSILNIVKEGQISLLPHLAADNLDKIHDENGNNLLHIAASQGHAECLQHLTSLMGEDCLNERNTEKLTPAGLAIKNGQLECVRWMVSETEAIAELSCSKDFPSLIHYAGCYGQEKILLWLLQFMQEQGISLDEVDQDGNSAVHVASQHGYLGCIQTLVEYGANVTMQNHAGEKPSQSAERQGHTLCSRYLVVVETCMSLASQVVKLTKQLKEQTVERVTLQNQLQQFLEAQKSEGKSLPSSPSSPSEPASRKSQWKSPDADDDSVAKSKPGVQEGIQVLGSLSASSRARPKAKDEDSDKILRQLLGKEISENVCTQEKLSLEFQDAQASSRNSKKIPLEKRELKLARLRQLMQRSLSESDTDSNNSEDPKTTPVRKADRPRPQPIVESVESMDSAESLHLMIKKHTLASGGRRFPFSIKASKSLDGHSPSPTSESSEPDLESQYPGSGSIPPNQPSGDPQQPSPDSTAAQKVATSPKSALKSPSSKRRTSQNLKLRVTFEEPVVQMEQPSLELNGEKDKDKGRTLQRTSTSNESGDQLKRPFGAFRSIMETLSGNQNNNNNYQAANQLKTSTLPLTSLGRKTDAKGNPASSASKGKNKAA
In the case of B4, the binding (myc-PINK1) is reported as “binds”.
